Data on five substances can be found in article PMC7084544.

By UniProt entry, the sequences of proteins in these tests, tags left out.
UniProt Q9Y265: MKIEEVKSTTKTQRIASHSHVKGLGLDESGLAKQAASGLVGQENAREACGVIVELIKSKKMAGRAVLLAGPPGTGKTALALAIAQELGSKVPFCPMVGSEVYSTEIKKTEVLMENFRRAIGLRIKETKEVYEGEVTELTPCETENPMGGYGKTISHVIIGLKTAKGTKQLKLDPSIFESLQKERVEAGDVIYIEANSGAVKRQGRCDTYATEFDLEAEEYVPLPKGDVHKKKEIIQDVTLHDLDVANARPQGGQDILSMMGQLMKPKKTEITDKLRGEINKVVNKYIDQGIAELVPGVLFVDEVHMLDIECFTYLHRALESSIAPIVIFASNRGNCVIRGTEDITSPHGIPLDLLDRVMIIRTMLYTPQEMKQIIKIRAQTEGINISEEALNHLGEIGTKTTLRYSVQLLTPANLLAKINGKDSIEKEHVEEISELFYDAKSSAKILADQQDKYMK
UniProt Q92993: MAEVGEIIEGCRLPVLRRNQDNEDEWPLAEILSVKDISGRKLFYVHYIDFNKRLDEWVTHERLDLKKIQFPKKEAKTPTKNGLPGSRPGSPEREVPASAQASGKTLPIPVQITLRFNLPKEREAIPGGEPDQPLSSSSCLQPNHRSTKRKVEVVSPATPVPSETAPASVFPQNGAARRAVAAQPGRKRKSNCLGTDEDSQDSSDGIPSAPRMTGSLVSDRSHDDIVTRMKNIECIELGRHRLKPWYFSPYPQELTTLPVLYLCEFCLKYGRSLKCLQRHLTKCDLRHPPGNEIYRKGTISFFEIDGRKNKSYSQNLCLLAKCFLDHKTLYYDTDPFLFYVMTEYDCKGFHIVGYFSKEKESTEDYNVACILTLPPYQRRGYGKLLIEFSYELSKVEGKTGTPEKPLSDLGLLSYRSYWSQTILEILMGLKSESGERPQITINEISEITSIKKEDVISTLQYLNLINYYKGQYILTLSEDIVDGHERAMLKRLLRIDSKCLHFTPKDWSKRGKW
UniProt Q15596: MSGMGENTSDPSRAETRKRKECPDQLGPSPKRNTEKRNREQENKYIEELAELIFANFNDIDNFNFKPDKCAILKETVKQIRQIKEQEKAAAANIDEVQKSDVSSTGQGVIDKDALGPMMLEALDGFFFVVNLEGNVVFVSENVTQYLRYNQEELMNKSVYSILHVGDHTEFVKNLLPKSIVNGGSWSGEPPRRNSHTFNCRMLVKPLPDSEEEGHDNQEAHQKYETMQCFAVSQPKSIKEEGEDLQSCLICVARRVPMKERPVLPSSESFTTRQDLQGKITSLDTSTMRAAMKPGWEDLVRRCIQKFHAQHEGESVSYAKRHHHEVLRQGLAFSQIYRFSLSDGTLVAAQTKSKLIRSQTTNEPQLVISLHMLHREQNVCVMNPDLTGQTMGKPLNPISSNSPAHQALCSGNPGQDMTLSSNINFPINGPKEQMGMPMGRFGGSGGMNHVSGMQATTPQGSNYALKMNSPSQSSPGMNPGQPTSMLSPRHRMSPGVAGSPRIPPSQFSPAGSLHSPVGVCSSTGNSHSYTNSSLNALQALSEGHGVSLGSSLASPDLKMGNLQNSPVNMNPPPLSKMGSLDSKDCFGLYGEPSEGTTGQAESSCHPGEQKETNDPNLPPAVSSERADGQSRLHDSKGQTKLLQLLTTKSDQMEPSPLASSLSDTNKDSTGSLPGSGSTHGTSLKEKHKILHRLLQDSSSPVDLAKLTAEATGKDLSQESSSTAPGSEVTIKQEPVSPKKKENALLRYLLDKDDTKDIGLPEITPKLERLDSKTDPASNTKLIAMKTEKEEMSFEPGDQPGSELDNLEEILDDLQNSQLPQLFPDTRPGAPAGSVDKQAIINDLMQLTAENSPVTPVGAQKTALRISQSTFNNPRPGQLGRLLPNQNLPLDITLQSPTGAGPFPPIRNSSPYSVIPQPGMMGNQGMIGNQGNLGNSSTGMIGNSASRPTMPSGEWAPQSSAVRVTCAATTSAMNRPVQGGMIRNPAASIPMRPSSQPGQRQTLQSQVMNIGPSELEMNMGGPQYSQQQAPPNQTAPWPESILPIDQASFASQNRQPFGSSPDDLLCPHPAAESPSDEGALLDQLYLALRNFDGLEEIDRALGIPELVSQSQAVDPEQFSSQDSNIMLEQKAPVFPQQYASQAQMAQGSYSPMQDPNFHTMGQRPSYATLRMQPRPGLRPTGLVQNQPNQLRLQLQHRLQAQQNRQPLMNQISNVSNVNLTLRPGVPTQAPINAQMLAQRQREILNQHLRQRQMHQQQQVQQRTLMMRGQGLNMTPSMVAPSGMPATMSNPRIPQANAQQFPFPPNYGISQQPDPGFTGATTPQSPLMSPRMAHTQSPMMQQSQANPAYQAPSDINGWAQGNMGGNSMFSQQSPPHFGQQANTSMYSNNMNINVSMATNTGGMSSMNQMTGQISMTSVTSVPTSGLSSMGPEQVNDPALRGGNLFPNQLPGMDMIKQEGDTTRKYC

These are yes or no findings as the source states them, for the method shown. In cells and extracts the contact can be indirect. Some results given as binding are weak or reduced against the parent protein; the word gives no strength. Where a sequence is shown, tags or fusion partners need not be part of it.

Assay [1] concerns the target T1, FLAG–RORα2 WT (transfected) (human) (UniProt P35398).
T1 sequence: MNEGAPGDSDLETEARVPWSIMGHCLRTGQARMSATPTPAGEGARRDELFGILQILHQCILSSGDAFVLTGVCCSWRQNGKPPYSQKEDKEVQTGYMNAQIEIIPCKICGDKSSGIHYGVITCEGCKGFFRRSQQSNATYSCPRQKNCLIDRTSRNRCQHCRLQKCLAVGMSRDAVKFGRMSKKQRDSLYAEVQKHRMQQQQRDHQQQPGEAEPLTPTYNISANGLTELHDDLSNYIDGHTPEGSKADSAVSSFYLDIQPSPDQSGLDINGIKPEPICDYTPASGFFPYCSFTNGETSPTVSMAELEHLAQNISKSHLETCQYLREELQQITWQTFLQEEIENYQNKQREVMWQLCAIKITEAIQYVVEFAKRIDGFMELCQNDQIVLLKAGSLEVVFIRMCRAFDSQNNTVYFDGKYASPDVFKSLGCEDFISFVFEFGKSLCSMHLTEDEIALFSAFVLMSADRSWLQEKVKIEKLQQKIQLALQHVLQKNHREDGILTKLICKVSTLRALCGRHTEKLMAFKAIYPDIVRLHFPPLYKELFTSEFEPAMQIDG
The assay is described as follows: co-IP; cells transfected with FLAG-RORα2, HA-Tip60 or GFP-pontin, without or with Hismax-SETD7 WT; extracts immunoprecipitated with anti-FLAG, blotted with anti-HA or anti-GFP (Figure 4B,C).

For assay [2], the target named is T1, FLAG–RORα2 WT (transfected) (human). The assay is described as follows: condition: only with co-expressed SETD7 enzymatic mutant; co-IP; as a4, but cells co-transfected with the Hismax-SETD7 enzymatic mutant; anti-FLAG immunoprecipitation, anti-HA blot (Figure 4B).
The target in assay [3] is T2, FLAG-tagged RORα1 (UniProt P35398).
T2 sequence: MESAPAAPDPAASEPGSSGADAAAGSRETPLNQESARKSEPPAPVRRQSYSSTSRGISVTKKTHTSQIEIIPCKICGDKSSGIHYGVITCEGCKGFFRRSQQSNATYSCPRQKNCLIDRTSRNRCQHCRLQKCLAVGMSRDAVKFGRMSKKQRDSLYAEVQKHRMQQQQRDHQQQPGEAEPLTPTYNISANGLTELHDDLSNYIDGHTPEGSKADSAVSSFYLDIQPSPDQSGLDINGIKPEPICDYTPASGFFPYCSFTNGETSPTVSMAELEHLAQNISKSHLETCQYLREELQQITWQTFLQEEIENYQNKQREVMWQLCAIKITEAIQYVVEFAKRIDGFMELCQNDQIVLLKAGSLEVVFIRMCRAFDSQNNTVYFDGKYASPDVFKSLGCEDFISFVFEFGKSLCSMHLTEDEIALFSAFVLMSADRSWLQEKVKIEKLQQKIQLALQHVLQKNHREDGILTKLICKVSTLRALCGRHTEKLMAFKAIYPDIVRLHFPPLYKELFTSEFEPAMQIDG
The assay is described as follows: co-IP; FLAG-RORα1 or FLAG-RORα2 purified from cell extracts on anti-FLAG (M2) agarose; washed with 20 mM Tris-HCl pH 7.9, 15% glycerol, 1 mM EDTA, 1 mM DTT, 0.05% Nonidet P40, 150 mM KCl; eluted with FLAG peptide; eluates Western-blotted (Figure 2C).

The target of assay [4] is T3, FLAG-tagged RORα2 (retinoid acid-related orphan receptor α, isoform 2), used for complex purification (human) (UniProt P35398).
T3 sequence: T1 sequence
The description is as above.

With GFP-pontin (from UniProt Q9Y265 1-456), the binding entry in assay [1] is “binds”.

For the substance HA-Tip60 (from UniProt Q92993 1-513), the values for the binding result in assay [2] and in assay [1] were “no binding” and “binds”, respectively. Regarding “Tip60 (endogenous, co-purified from cell extracts) (from UniProt Q92993 1-513)”, the binding entry in assay [3] is “no binding”; in assay [4] it was “binds”.

Regarding “pontin (endogenous, co-purified from cell extracts) (from UniProt Q9Y265 1-456)”, the binding entry in assay [3] is “no binding”; in assay [4], “binds”. The matching figures for “Grip1 (endogenous, co-purified from cell extracts) (from UniProt Q15596 1-1464)”: “binds” and “binds”.
